{"source": "the supplement of paper PMC3334620", "note": "Whole data set: some 33,000 sequences, median “E-score (-0.5 to 0.5)” near -0.01, cut for the highest 2% near 0.26. Some of the results follow.", "data": [{"target": "Ste12 (UniProt P13574)", "test": "PBM E-score (8-mer binding enrichment) (E-score (-0.5 to 0.5)); higher = stronger / more preferred TF binding; most listed sequences are background and not binding sites", "conditions": "protein concentration: 200 nM; construct: GST-DNA-binding domain", "procedure,_shortened": "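Bound GST-tagged yeast transcription factors, applied at about 100-200 nM to double-stranded universal all-10-mer Agilent arrays, were detected with fluorescent anti-GST. Scans were normalised with masliner. A modified Wilcoxon-Mann-Whitney statistic, the E-score, was assigned to each ungapped eight-base word pooled with its reverse complement by the Universal PBM Analysis Suite.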", "values": [{"sequence": "TCCCGGGA", "PBM E-score": 0.19}, {"sequence": "CGAGCAAA", "PBM E-score": -0.0181}, {"sequence": "AAACCGCG", "PBM E-score": 0.287}, {"sequence": "CCGAGATA", "PBM E-score": -0.0199}, {"sequence": "CGCTTCGA", "PBM E-score": -0.0748}, {"sequence": "CAGACGAA", "PBM E-score": 0.167}, {"sequence": "GGCCAGAA", "PBM E-score": 0.153}, {"sequence": "ACCGAGGC", "PBM E-score": -0.115}, {"sequence": "GACGGTCA", "PBM E-score": 0.00202}, {"sequence": "GGTCTCGA", "PBM E-score": 0.0495}, {"sequence": "ATGGAAAT", "PBM E-score": 0.0797}, {"sequence": "GGCAGCGA", "PBM E-score": -0.0692}, {"sequence": "GGGATACA", "PBM E-score": -0.0287}, {"sequence": "AACGCGCG", "PBM E-score": 0.14}, {"sequence": "CTCCGGAC", "PBM E-score": -0.0149}, {"sequence": "CCACACAC", "PBM E-score": 0.064}, {"sequence": "CCCCTAGA", "PBM E-score": -0.131}, {"sequence": "AGAAATCA", "PBM E-score": 0.156}, {"sequence": "AGTTCATA", "PBM E-score": 0.143}, {"sequence": "CTTGCTTC", "PBM E-score": 0.0415}, {"sequence": "GCGAGGAC", "PBM E-score": -0.201}, {"sequence": "CGACGGAA", "PBM E-score": 0.00955}, {"sequence": "GTCACAAC", "PBM E-score": 0.116}, {"sequence": "ATAGGGAT", "PBM E-score": -0.0964}, {"sequence": "CACTGGAC", "PBM E-score": -0.257}, {"sequence": "GCGCCTGA", "PBM E-score": 0.0395}, {"sequence": "AAGCACCG", "PBM E-score": -0.052}, {"sequence": "AGGATAAC", "PBM E-score": -0.063}, {"sequence": "ATCGATAC", "PBM E-score": 0.0976}, {"sequence": "AGGCCATA", "PBM E-score": -0.245}, {"sequence": "ACTTAGTG", "PBM E-score": -0.00871}, {"sequence": "TAGAAAAA", "PBM E-score": 0.0605}, {"sequence": "AACTATGA", "PBM E-score": 0.166}, {"sequence": "GAACGTCC", "PBM E-score": -0.0356}, {"sequence": "CCATCGAC", "PBM E-score": -0.077}, {"sequence": "ATGGTAAC", "PBM E-score": 0.118}, {"sequence": "AGCCACGA", "PBM E-score": -0.0321}, {"sequence": "AGTGATGG", "PBM E-score": -0.0377}, {"sequence": "CACCTGGG", "PBM E-score": -0.176}, {"sequence": "AGTCTTAT", "PBM E-score": -0.0387}, {"sequence": "AGTTTACG", "PBM E-score": 0.0418}, {"sequence": "GTTGGTTA", "PBM E-score": -0.0651}, {"sequence": "CCTAGCAG", "PBM E-score": -0.117}, {"sequence": "CTACGCAA", "PBM E-score": -0.0688}, {"sequence": "CAGCTACG", "PBM E-score": -0.253}, {"sequence": "GACAGATA", "PBM E-score": -0.00214}, {"sequence": "GTCATTAA", "PBM E-score": 0.124}, {"sequence": "AAATGAAC", "PBM E-score": 0.154}, {"sequence": "CATGCTTC", "PBM E-score": -0.0225}, {"sequence": "CGCGGTCC", "PBM E-score": -0.123}, {"sequence": "GATCGCAA", "PBM E-score": 0.113}, {"sequence": "CAACGGCA", "PBM E-score": 0.0603}, {"sequence": "GGCAGTTA", "PBM E-score": -0.00647}, {"sequence": "GGGAAATA", "PBM E-score": 0.0559}, {"sequence": "CTATCTGC", "PBM E-score": -0.0945}, {"sequence": "CCCGCAGC", "PBM E-score": -0.106}, {"sequence": "GCCACGTA", "PBM E-score": -0.16}, {"sequence": "TATTAGCA", "PBM E-score": 0.108}, {"sequence": "GGATAGTA", "PBM E-score": 0.0158}, {"sequence": "CTGATTAC", "PBM E-score": "5e-05"}, {"sequence": "GTCACCGA", "PBM E-score": -0.0361}, {"sequence": "CCGTAGGC", "PBM E-score": -0.133}, {"sequence": "GACAGCCC", "PBM E-score": -0.085}, {"sequence": "ACATGCAC", "PBM E-score": -0.0579}, {"sequence": "CTCGACAC", "PBM E-score": 0.0679}, {"sequence": "CTATTGGA", "PBM E-score": 0.0474}, {"sequence": "CTAGGGAA", "PBM E-score": -0.00713}, {"sequence": "GACTTTGA", "PBM E-score": 0.0133}, {"sequence": "CCCAGTGA", "PBM E-score": -0.164}, {"sequence": "ATAATATC", "PBM E-score": 0.0283}, {"sequence": "AAGTCGGG", "PBM E-score": -0.0369}, {"sequence": "CCCAGTTA", "PBM E-score": -0.171}, {"sequence": "CACATGTA", "PBM E-score": 0.0686}, {"sequence": "ACCGCCCG", "PBM E-score": -0.057}, {"sequence": "CTGTATTA", "PBM E-score": 0.095}, {"sequence": "AGTCTCAT", "PBM E-score": 0.104}, {"sequence": "CGTTGGTA", "PBM E-score": -0.138}, {"sequence": "CGCAATAC", "PBM E-score": 0.169}, {"sequence": "GAGCATCC", "PBM E-score": -0.17}, {"sequence": "AAACGCAA", "PBM E-score": 0.0977}, {"sequence": "GTGCTCGA", "PBM E-score": -0.159}, {"sequence": "GTGTGGTA", "PBM E-score": -0.0309}, {"sequence": "AGTGCAAC", "PBM E-score": -0.0471}, {"sequence": "CCATCTGC", "PBM E-score": 0.0198}, {"sequence": "AACCAGAC", "PBM E-score": -0.095}, {"sequence": "GCCAAATA", "PBM E-score": 0.101}, {"sequence": "GTGGTGCA", "PBM E-score": -0.155}, {"sequence": "GCCGATCC", "PBM E-score": -0.166}, {"sequence": "GGTCGATA", "PBM E-score": 0.0867}, {"sequence": "CGACTCCA", "PBM E-score": 0.0484}, {"sequence": "GAGATGAC", "PBM E-score": -0.0892}, {"sequence": "CCCCATCG", "PBM E-score": -0.044}, {"sequence": "CGGACATA", "PBM E-score": 0.0625}, {"sequence": "ATACGGCC", "PBM E-score": 0.141}, {"sequence": "GATCCCCC", "PBM E-score": -0.0461}, {"sequence": "GGAACCAA", "PBM E-score": 0.163}, {"sequence": "AAGAGTGG", "PBM E-score": -0.111}, {"sequence": "GGATACTA", "PBM E-score": 0.0524}, {"sequence": "ACACAGGC", "PBM E-score": 0.186}, {"sequence": "GAACGTTA", "PBM E-score": -0.0679}, {"sequence": "GCTAAGCC", "PBM E-score": -0.137}, {"sequence": "GTGCCATA", "PBM E-score": -0.138}, {"sequence": "GATGATGC", "PBM E-score": -0.125}, {"sequence": "TAACGCAA", "PBM E-score": 0.0707}, {"sequence": "CCGCGTAG", "PBM E-score": 0.0797}, {"sequence": "CCGTCCAG", "PBM E-score": -0.0267}, {"sequence": "GCGCAACC", "PBM E-score": -0.155}, {"sequence": "CGCAACAC", "PBM E-score": -0.0352}, {"sequence": "ACGTCTAA", "PBM E-score": -0.109}, {"sequence": "CCTTTTCG", "PBM E-score": 0.19}, {"sequence": "ATCTAAAG", "PBM E-score": 0.0764}, {"sequence": "AGTTGCCG", "PBM E-score": -0.0523}, {"sequence": "CCGTTCAG", "PBM E-score": -0.0864}, {"sequence": "CTTAGGCC", "PBM E-score": -0.257}, {"sequence": "CTCCCCAA", "PBM E-score": 0.0954}, {"sequence": "AATTATTA", "PBM E-score": 0.19}, {"sequence": "CTCCTCAA", "PBM E-score": -0.0949}, {"sequence": "CGCTAGCC", "PBM E-score": -0.206}, {"sequence": "GTTCCCAA", "PBM E-score": -0.191}, {"sequence": "CCGATATA", "PBM E-score": 0.058}, {"sequence": "CACGGTAA", "PBM E-score": -0.0535}, {"sequence": "CATTACGG", "PBM E-score": -0.0457}, {"sequence": "GGTCTAGA", "PBM E-score": -0.0691}, {"sequence": "GCGCATAC", "PBM E-score": -0.129}, {"sequence": "GACCGGCC", "PBM E-score": -0.0562}, {"sequence": "AGCCGTAT", "PBM E-score": 0.0733}, {"sequence": "ATTTTGCA", "PBM E-score": 0.0521}, {"sequence": "CCAGTGCC", "PBM E-score": -0.219}, {"sequence": "AAATTAGT", "PBM E-score": 0.244}, {"sequence": "AAAAGCCG", "PBM E-score": 0.0296}, {"sequence": "ACGCAGCC", "PBM E-score": -0.134}, {"sequence": "CAATTAAC", "PBM E-score": 0.181}, {"sequence": "CCCGCCGG", "PBM E-score": 0.158}, {"sequence": "ACGTAGTC", "PBM E-score": -0.302}, {"sequence": "GAGGCAGA", "PBM E-score": -0.165}, {"sequence": "CCGCGCAC", "PBM E-score": 0.045}, {"sequence": "AATCAAAA", "PBM E-score": 0.222}, {"sequence": "CTGTTGTA", "PBM E-score": 0.0589}, {"sequence": "AAAGAACA", "PBM E-score": 0.0587}, {"sequence": "TAACTTCA", "PBM E-score": 0.0907}, {"sequence": "CAGATTAG", "PBM E-score": -0.165}, {"sequence": "AACATTTA", "PBM E-score": 0.29}, {"sequence": "AGCCATGA", "PBM E-score": -0.191}, {"sequence": "GGGAGCCC", "PBM E-score": -0.262}, {"sequence": "AGAGATAT", "PBM E-score": -0.0179}, {"sequence": "GAGTGCAC", "PBM E-score": -0.0564}, {"sequence": "AATTTTCC", "PBM E-score": 0.225}, {"sequence": "AGTGAAGA", "PBM E-score": 0.114}, {"sequence": "AGCGGAAG", "PBM E-score": -0.0482}, {"sequence": "GACAACAA", "PBM E-score": 0.0852}, {"sequence": "GCCGGCGA", "PBM E-score": -0.144}, {"sequence": "CGGGAAAA", "PBM E-score": 0.157}, {"sequence": "CCTATAAA", "PBM E-score": -0.0504}, {"sequence": "CCGCCCCG", "PBM E-score": 0.408}, {"sequence": "ATAAAATA", "PBM E-score": 0.257}, {"sequence": "AAACGTCC", "PBM E-score": -0.0125}, {"sequence": "GTGTTCGA", "PBM E-score": 0.0597}, {"sequence": "CGTTTTCA", "PBM E-score": 0.132}, {"sequence": "AGTCGCAT", "PBM E-score": -0.0855}, {"sequence": "ATTATGAA", "PBM E-score": 0.265}, {"sequence": "GCTCAAAC", "PBM E-score": 0.0621}, {"sequence": "GCGAGCAC", "PBM E-score": -0.0355}, {"sequence": "AATCTCAG", "PBM E-score": 0.00293}, {"sequence": "GCTTCACA", "PBM E-score": -0.11}, {"sequence": "ACTTCTTG", "PBM E-score": -0.113}, {"sequence": "CGCTAGTA", "PBM E-score": 0.0516}, {"sequence": "CTGGTGGC", "PBM E-score": 0.069}, {"sequence": "GATGTCGC", "PBM E-score": 0.107}, {"sequence": "GATTGGGA", "PBM E-score": 0.00516}, {"sequence": "CTCATACC", "PBM E-score": -0.108}, {"sequence": "GGTCCAGA", "PBM E-score": -0.0878}, {"sequence": "CGTGAATC", "PBM E-score": -0.0573}]}]}
